Data: the supplement of paper PMC10126150
Values marked as one replicate rest on one cluster of the flow cell; about a third of the high ones do not repeat.

Tested on: ATP
Assay: switch fluorescence ratio, 500 uM ATP over buffer (Cy3 cluster intensity, sum of 5 cycles each) (fold (ratio)); higher = stronger signal-on switching upon ATP binding; sequences stand for … in TCGTCGGCAGCGTCAGATGTGTATAAGAGACAGTTTTTTTTTTTTTTTTTTTTTTTTT…TC
Settings: aptamer strand: ATP DNA aptamer (quencher-CACCTGGGGGAGTATTGCGGAGGAAGG + anchor), 100 nM annealed; ATP concentration: 500 uM; one replicate
Summary of the method: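 Cy3-labelled switching-strand clusters on a modified Illumina MiSeq flow-cell were annealed to 100 nM quencher-labelled ATP aptamer, imaged in selection buffer, then imaged after 15 min with 500 uM ATP at 22 °C. Five buffer/ATP cycles ran, with NaOH stripping and re-annealing between them. The fluorescence ratio is summed target-cycle over summed buffer-cycle Cy3 intensity per cluster, averaged per switch-domain sequence. Clusters outside 100-1000 RFU were excluded.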
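Further: ATP exposure 15 min at 22 °C before imaging.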

Sequence | switch fluorescence ratio
TTGCTATGCA | 1.01
TCTATAGGGC | 1.07
TGATATCATG | 0.975
AATGAGATGA | 0.922
GGGCTCTAGT | 0.978
TGCTTTGAGA | 0.988
CGTTAATCGG | 1.02
GCTGCCATTC | 1.14
ACCGAGGGCC | 1.03
AAGTGTATTC | 0.939
GGAAAAAAGC | 0.957
GGTTCTAGAA | 0.942
TAGTTCCGT | 1.01
TGGCTGCTAG | 0.97
GCAGAGTATG | 1
TAGTTCAAGA | 0.971
ACTGGAGTGT | 0.984
GAAGAGATTT | 0.999
GCCTACAGGA | 1.03
GTCCCTAGAA | 0.987
ATCAATGATG | 1.01
ATAAATGGCC | 0.976

Sequence | switch fluorescence ratio
AAGGAAATGC | 1.5
TTATGTGAAG | 0.984
CTCATGACTA | 1.03
AATCCGATAG | 1.1
TATCATCGTT | 0.99
TATATAACGC | 1.01
ACAAGAGTCT | 1.04
ACCGATAGCA | 1.19
AAGCGAAGGG | 1.06
GCTCGCAGTG | 1.04
CCTGTCGATA | 1.16
TGAGTTACTC | 2.06
AATCAGGCTT | 0.994
GGGCCGTGGA | 1.01
TAGGAACAG | 0.982
TTTCCGTCGA | 1.1
ATTAACCGGC | 1.11
AATGTCCGTA | 1.09
AATGGATAGA | 0.945
TTACTCTAC | 1.32
CCTATGAGTA | 1.02
GACCTTTGCA | 1.14

Sequence | switch fluorescence ratio
GGAGGATATA | 1.05
GCTTAGGGGA | 1.11
ATTAGAGGGC | 0.962
CGGGCCATGG | 0.984
CTTCGGATGC | 1.36
GGGAGCGATT | 1.02
AACACCAAAG | 1.04
TGGCATCCA | 0.982
GCTCTATCGA | 0.978
TCTCAAGGGT | 1.03
TCCATAGTGG | 1.03
ACTGGAGTTG | 1
CCCTTTGCTA | 1.24
AACTATATTG | 1.02
AGCTTAATGT | 0.944
CTTTTGAGG | 1.03
TCTGATATGG | 0.987
GTCTGTCGTA | 0.935
GTTAGGCTCC | 1.02
AATGTACGAA | 1.12
GGGAAAAGTG | 0.933
TGGTGGAAGG | 0.971

Sequence | switch fluorescence ratio
ATGTCCGGGA | 1.06
CTGCAGTCTC | 1.61
GGTTCAGTGG | 1.01
CGCGCCGCTG | 1.03
GGCGTTTACA | 0.994
TGAAATCTAT | 0.977
GCTAAGTAGC | 0.966
TGGCTGAAAA | 1.02
TTAGCTGGCG | 1
AATTCTAAAA | 0.974
ACTTTCTACG | 2.04
CCGTGGCCCC | 3.21
GGGGAGATCG | 1.1
TGGTCACGAC | 0.973
CTTTGCAGCG | 0.953
TGTACTTATC | 1.05
GGTAAACATT | 1.05
GGTCTTGGA | 0.992
TTCACACGTG | 0.995
